According to patent US7807153 (Genentech, dated 2010):

Columns and labels:
[1] = target: T1, poly-histidine-tagged soluble Apo-2L (UniProt P50591 114-281); assay: BIACORE, Apo-2 ECD purified with anti-Flag beads
T1 construct: Soluble form; also called Apo-2 ligand; TRAIL; not shown: poly-histidine tag

[2] = target: T2, lymphotoxin-alpha (Genentech, Inc.) (UniProt P01374 35-205, limits assumed); assay: BIACORE
T2 sequence (looked up): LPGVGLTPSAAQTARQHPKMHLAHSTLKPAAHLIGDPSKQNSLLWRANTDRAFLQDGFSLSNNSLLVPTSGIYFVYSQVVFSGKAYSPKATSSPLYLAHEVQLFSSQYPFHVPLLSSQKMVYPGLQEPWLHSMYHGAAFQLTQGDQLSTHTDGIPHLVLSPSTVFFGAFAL

[3] = target: T3, Fas/Apo-1 ligand (Alexis Biochemicals) (UniProt P48023 103-281); assay: BIACORE
T3 sequence (looked up): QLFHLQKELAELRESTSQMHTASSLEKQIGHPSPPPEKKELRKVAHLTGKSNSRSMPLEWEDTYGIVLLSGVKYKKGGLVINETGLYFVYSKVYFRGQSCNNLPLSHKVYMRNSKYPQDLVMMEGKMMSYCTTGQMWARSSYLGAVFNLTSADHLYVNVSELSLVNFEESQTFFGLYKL

[4] = target: TNF-alpha (Genentech, Inc.) (UniProt P01375 part only); assay: BIACORE
Chain of UniProt P01375 (P01375 77-233 limits assumed): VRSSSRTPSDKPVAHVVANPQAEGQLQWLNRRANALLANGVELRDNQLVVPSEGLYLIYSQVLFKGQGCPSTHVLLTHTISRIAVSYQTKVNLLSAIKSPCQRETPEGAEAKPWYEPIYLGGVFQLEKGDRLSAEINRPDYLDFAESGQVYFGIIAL

T1 sequence (P50591 114-281 limits assumed): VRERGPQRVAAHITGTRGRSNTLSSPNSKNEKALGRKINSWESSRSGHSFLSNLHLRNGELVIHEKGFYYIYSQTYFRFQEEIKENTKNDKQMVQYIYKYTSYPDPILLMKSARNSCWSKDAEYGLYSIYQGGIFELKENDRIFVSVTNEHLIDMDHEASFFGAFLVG

B1: Flag epitope-tagged Apo-2 ECD (receptor, not shown: small tags and cut ends)
chain: not shown
notes: Expressed in human 293 cells; Residues 183 and 184 belong to the predicted transmembrane region and were kept for flexibility; also called Apo-2 ECD-Flag; soluble Apo-2 ECD
B1 was tested. Which Kd [1] did it give?
Its Kd is ~1 nM.

Does B1 bind [2]?
Result: no binding

Does B1 bind [3]?
Result: no binding

Does B1 bind [4]?
Result: no binding
